Experimental data reported in article PMC4336329 (PLoS ONE, 2015).
About 2,200 (0.71%) of roughly 310,000 compounds showed an effect of 50% or more. The effect is printed as a negative number. Some of the results follow.

Each compound was assayed against human ether-à-go-go-related gene (hERG) potassium channel (human, UniProt Q12809) (assay: primary screen, population patch clamp on CHO cells stably expressing hERG).
Sequence of human ether-à-go-go-related gene (hERG) potassium channel (Q12809 whole entry, looked up): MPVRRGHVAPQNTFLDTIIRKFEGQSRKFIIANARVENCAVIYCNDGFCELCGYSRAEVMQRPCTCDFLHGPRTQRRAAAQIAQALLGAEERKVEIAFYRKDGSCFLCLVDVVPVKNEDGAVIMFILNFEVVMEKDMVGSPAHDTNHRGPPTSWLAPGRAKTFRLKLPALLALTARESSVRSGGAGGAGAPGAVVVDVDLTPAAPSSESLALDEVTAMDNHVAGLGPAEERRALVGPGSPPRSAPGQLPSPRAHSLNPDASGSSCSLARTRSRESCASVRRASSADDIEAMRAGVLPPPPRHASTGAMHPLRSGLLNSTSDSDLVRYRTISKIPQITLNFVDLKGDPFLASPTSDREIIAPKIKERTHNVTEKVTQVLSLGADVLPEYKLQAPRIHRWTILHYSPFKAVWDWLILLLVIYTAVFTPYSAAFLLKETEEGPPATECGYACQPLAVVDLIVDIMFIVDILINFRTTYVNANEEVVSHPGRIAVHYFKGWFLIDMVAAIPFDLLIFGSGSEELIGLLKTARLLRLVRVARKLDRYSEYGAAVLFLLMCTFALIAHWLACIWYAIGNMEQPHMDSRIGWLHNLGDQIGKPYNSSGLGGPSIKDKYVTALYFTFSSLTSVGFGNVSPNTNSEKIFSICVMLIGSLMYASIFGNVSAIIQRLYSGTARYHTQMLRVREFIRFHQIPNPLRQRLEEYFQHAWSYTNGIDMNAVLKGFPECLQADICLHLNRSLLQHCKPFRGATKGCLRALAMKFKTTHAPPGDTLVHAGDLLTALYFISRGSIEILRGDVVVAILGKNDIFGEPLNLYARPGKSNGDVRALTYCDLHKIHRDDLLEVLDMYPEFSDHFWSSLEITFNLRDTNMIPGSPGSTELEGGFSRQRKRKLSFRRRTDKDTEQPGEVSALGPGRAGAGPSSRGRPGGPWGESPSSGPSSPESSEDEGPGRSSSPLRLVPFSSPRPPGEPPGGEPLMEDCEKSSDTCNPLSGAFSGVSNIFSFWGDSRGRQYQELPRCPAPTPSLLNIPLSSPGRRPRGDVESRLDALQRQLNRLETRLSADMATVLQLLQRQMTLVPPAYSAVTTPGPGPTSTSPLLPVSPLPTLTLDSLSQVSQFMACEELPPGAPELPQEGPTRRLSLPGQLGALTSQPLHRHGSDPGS

Compared with `CC(C)COc1ccc(-c2nnn(CC(=O)N3CCCC3)n2)cc1`, `CC(Oc1ccc(F)cc1)C(=O)Nc1cc(S(=O)(=O)N2CCOCC2)ccc1N1CCCC1` (centres unmarked) is higher in “hERG current change (%, negative = inhibition) at 1uM” value: -10.7% for the first, 14.5% for the second.

Compared with `CC(=O)c1oc2ccccc2c1NC(=O)COC(=O)c1ccc(-n2nc(C)cc2C)cc1`, `COc1ccccc1C(=O)NNC(=O)c1ccc(NC(=O)CC(C)C)cc1` is lower in “hERG current change (%, negative = inhibition) at 1uM” value: 21.3% for the first, 11.8% for the second.

First: CCC(=Nc1ccccc1OC)C1=C(O)CC(c2ccccc2)CC1=O (centres unmarked)
Second: COc1ccccc1NC(=O)Nc1ccccc1C#N
The “hERG current change (%, negative = inhibition) at 1uM” value of the first is lower: 4.65% for the first, 15.2% for the second.

Compared with `COC(=O)c1cc(OC)c(OC)cc1-n1cnc2cc(OC)c(OC)cc2c1=O`, `COC(=O)C1=Nc2ccccc2/C1=C\c1c(O)n(-c2cc(OC)ccc2OC)c(=O)[nH]c1=O` is higher in “hERG current change (%, negative = inhibition) at 1uM” value: 14.4% for the first, 19.1% for the second.

Compared with `C=CCN1C(=O)C2(OCCCO2)c2cc(Cl)ccc21`, `Cc1ccc2c(c1)N(Cc1ccncc1)C(=O)C(C)O2` (centres unmarked) is lower in “hERG current change (%, negative = inhibition) at 1uM” value: 13.8% for the first, -10.9% for the second.

Going from `CCOc1ccc(CN2CCN(Cc3cccc4c3OCO4)CC2CCO)cc1` (centres unmarked) to `CCc1ccccc1NC(=S)N1CCC(C(=O)c2ccc(F)cc2)CC1`, the “hERG current change (%, negative = inhibition) at 1uM” value rises from -64.9% to -9.53%.

Going from `COC(=O)c1cc(NC(=O)Cc2coc3cc(OC)ccc23)cc(C(=O)OC)c1` to `COc1cc(OC)cc(C(=O)Nc2ccc(Br)cc2C(=O)c2ccccc2)c1`, the “hERG current change (%, negative = inhibition) at 1uM” value rises from 3.34% to 14.7%.

First: COC(=O)c1ccc(Sc2ccccn2)c([N+](=O)[O-])c1
Second: O=C(COc1ccc(F)cc1F)NNC(=O)Nc1cccc([N+](=O)[O-])c1
The “hERG current change (%, negative = inhibition) at 1uM” value of the first is higher: 12.6% for the first, 5.48% for the second.

Compared with `N#CCCN(C(=O)COC(=O)c1ccc2c(=O)n3c(nc2c1)CCC3)c1ccc(F)cc1`, `CCCN(CC(=O)Nc1ccc(C(N)=O)cc1)CC(=O)Nc1ccc(F)c(F)c1F` is higher in “hERG current change (%, negative = inhibition) at 1uM” value: 1.88% for the first, 9.34% for the second.

Going from `CC1(C)CC(N(Cc2ccco2)C(=O)Cc2ccccc2)CCO1` (centres unmarked) to `CCOc1ccc(C(=O)OCC(=O)N(Cc2ccccc2)Cc2ccccc2)cc1OC`, the “hERG current change (%, negative = inhibition) at 1uM” value falls from 6.16% to -2.76%.

Going from `O=c1c2c3c(sc2n2c(=S)[nH]nc2n1-c1ccccc1)CCC3` to `Cc1[nH]c2ccccc2c(=O)c1CN1CCCCC1`, the “hERG current change (%, negative = inhibition) at 1uM” value falls from 13% to 5.08%.

First: COC(=O)CC1C(=O)NCCN1C(=O)c1ccccc1 (centres unmarked)
Second: CCOC(=O)/C=C/C(=O)OCC(=O)NCc1ccccc1
The “hERG current change (%, negative = inhibition) at 1uM” value of the first is lower: 11.9% for the first, 16.1% for the second.

First: C=CCc1cccc2cc(C(=O)OCC)c(=O)oc12
Second: O=C(COC(=O)c1ccc(O)cc1O)Nc1ccc2c(c1)OCCO2
The “hERG current change (%, negative = inhibition) at 1uM” value of the first is lower: -16.4% for the first, 6.26% for the second.

Compared with `CCO[C@@H]1OC(C(=O)NCc2ccccc2)=C[C@H](c2coc3ccccc3c2=O)[C@H]1CCCO`, `O=C(CCN1C(=O)C2C3C=CC(C3)C2C1=O)NCCc1ccccc1` (centres unmarked) is higher in “hERG current change (%, negative = inhibition) at 1uM” value: -4.22% for the first, 9.54% for the second.

Going from `CCn1cc(C(=O)NCCc2ccccc2)c(=O)c2cc(F)c(N3CCN(C)CC3)cc21` to `COCCN1CCN(C(=O)c2cc(COc3ccc(F)c(F)c3)on2)CC1`, the “hERG current change (%, negative = inhibition) at 1uM” value rises from 3.58% to 9.42%.

Compared with `CC(C)c1cc(-c2cc(-c3ccccc3)on2)nc(NC2CCCC2)n1`, `CCC(C(=O)NC1CCCC1)N(C(=O)c1snc(C(N)=O)c1N)c1ccc(C)cc1C` (centres unmarked) is lower in “hERG current change (%, negative = inhibition) at 1uM” value: 13.2% for the first, 12% for the second.

First: CC(C)CN1C2CCCC1CC(NC(=O)c1ccc([N+](=O)[O-])cc1)C2 (centres unmarked)
Second: CCN(CC(=O)Nc1ccccc1Br)C1CCCCC1
The “hERG current change (%, negative = inhibition) at 1uM” value of the first is lower: -70.1% for the first, -0.704% for the second.

Going from `Cc1ccc2[nH]c(=O)c(CN(C(=O)c3cccc([N+](=O)[O-])c3)C(C)(C)C)cc2c1` to `Cc1ccc(CN(Cc2cc3cccc(C)c3[nH]c2=O)C(=S)NCCCN(C)C)cc1`, the “hERG current change (%, negative = inhibition) at 1uM” value falls from 14.4% to -12.3%.

Compared with `Cc1ccc(OCCCC(=O)Nc2ccc(Br)cc2)cc1`, `CCn1ncc(C(=O)Nc2ccc(F)cc2)c1C` is higher in “hERG current change (%, negative = inhibition) at 1uM” value: 11.5% for the first, 14% for the second.

Compared with `CCCCCN(C(=O)CCC(=O)OCc1ccc(C(C)(C)C)cc1)c1c(N)n(CCCC)c(=O)[nH]c1=O`, `C#Cc1ccc([C@@H]2C=C(C(=O)O)O[C@H](OCc3ccc(CO)cc3)C2)cc1` is higher in “hERG current change (%, negative = inhibition) at 1uM” value: 11.2% for the first, 13.6% for the second.

`Cc1cccc(NC(=O)CN(C)C(=O)C2CC2)c1C` and `Cc1cc(OCC(=O)N2CCC(C(=O)O)CC2)c2c(C)c(C)c(=O)oc2c1` are the same in “hERG current change (%, negative = inhibition) at 1uM” value: 14.4% for the first, 14.4% for the second.

Going from `Cc1cc(C)c(S(C)(=O)=O)c(=O)[nH]1` to `CCCOc1cc(C)c(S(=O)(=O)NC2CC(C)(C)NC(C)(C)C2)cc1C`, the “hERG current change (%, negative = inhibition) at 1uM” value falls from 22.6% to 4.81%.

First: Cc1nc(Nc2ccccc2F)c2oc3ccccc3c2n1
Second: Cc1nc(-c2ccc(C(=O)Nc3ccccc3F)cc2)cs1
The “hERG current change (%, negative = inhibition) at 1uM” value of the first is lower: -17.6% for the first, 9.9% for the second.

First: Cc1cc(C)n2nc(SCC(=O)NC(=O)c3ccccc3Cl)nc2n1
Second: COC(=O)C(O)(c1ccc(NC(=S)NC(=O)c2ccc(Cl)cc2Cl)c(C)c1)C(F)(F)F (centres unmarked)
The “hERG current change (%, negative = inhibition) at 1uM” value of the first is lower: 4.49% for the first, 17.6% for the second.

Going from `O=C(COC(=O)c1ccc2c(c1)OCCO2)Nc1cccc(S(=O)(=O)N2CCOCC2)c1` to `O=C(NNC(=O)c1ccc(Br)o1)c1csc(N2CCOCC2)n1`, the “hERG current change (%, negative = inhibition) at 1uM” value rises from -1.35% to 4.89%.

First: COCCCN1C(=O)CC(C(=O)OC)=C1C
Second: CCOC(=O)c1c(NC(=O)CSc2nnnn2CC)sc(C)c1C
The “hERG current change (%, negative = inhibition) at 1uM” value of the first is higher: 12.9% for the first, 10.2% for the second.

First: CCNc1nc(NCC)nc(SCCOC(=O)c2ccccc2)n1
Second: CN(C)C(CNC(=O)Nc1cccc(Cl)c1)c1cccnc1 (centres unmarked)
The “hERG current change (%, negative = inhibition) at 1uM” value of the first is lower: 2.83% for the first, 4.19% for the second.

Compared with `Nc1nonc1C(=O)NCCNc1ccc([N+](=O)[O-])cn1`, `Cc1ccc(C)c(C(=O)NCc2ccncc2)c1` is lower in “hERG current change (%, negative = inhibition) at 1uM” value: 0.313% for the first, -1.89% for the second.
